B1: tRNA (parent)
chain: CUCUCGGUAGCCAAGUUGGUUUAAGGCGCAAGACUUUAAUUUAUCACUACGAAAUCUUGAGAUCGGGCGUUCGACUCGCCCCCGGGAGAUUUUUUCCUCGAGCAA

Variants at the background level are over-represented here.

The data set covers variants of B1. Kind of data set: nonsense suppression (GFP-seq) (ratio to wild type); higher = more function; SUP4oc tRNA, yeast GFP reporter sort-seq. In short, it runs like this: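 To measure nonsense suppression, tRNA variants from a library carrying ~3% random mutations were integrated into the yeast genome alongside RFP and a GFP ochre reporter under galactose control. Growth took place in raffinose/galactose medium supplemented with 80 mg/L adenine, followed by sorting into GFP/RFP bins and Illumina sequencing of each bin (phred ≥30). For each variant with ≥100 reads and ≥30 cells, the bin median GFP/RFP values were weighted by its estimated cell share per bin and referenced to the unmutated parent tRNA.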
C11G U17C: the nonsense suppression is at most 0.026.

With C29A A33C C83U, the nonsense suppression is at most 0.026. For the variant U4C G26C C29A, the nonsense suppression was at most 0.026. As for U4A G7U G69C, the figure is at most 0.026. With C3U U76A the figure was 0.0398; with U20A C80U A89G, at most 0.026. As for C5U A62C G65C U70G U71A, the figure is at most 0.026; as for U2C G26C C75U, at most 0.026; as for A54G G78C, at most 0.026. Take A14U G18U A54C U58C: the nonsense suppression was at most 0.026. As for U21G C29U C34A U58G G61U C80U, the figure is at most 0.026; as for G59A G66C A87U, at most 0.026; as for U16C A31C C77G, at most 0.026.

For the variant U63C U76A, the nonsense suppression is at most 0.026. With C56G C72A the figure was at most 0.026. With A23U A24C U70C the figure was at most 0.026; with C3U U8G G67A, at most 0.026; with G6U G25C G26A G61A, at most 0.026. As for C27U A87G G88C, the figure is at most 0.026; as for U4C G59U A60C, at most 0.026.

C11G C29G G61U: the nonsense suppression is at most 0.026. As for C1U G18A A31U U70C G86A, the figure is at most 0.026; as for U2C U20A G78A, at most 0.026. With U4C A13U A54C A74C the figure was at most 0.026; with G18C G19A C29U, at most 0.026.

With A14G G25C C64U, the nonsense suppression is at most 0.026. Turning to A31U G78U C80A G88U, the nonsense suppression was at most 0.026. As for A24U A60G G65U G88C A89G, the figure is at most 0.026. With U35G A62G G66C the figure was at most 0.026; with G10U G86C, at most 0.026; with C1A C5U U17A U55A, at most 0.026. As for C1A U16C G32U G65A, the figure is at most 0.026; as for G7U U17A U20C A23G A31G A87U, at most 0.026. Turning to G6C A13C U63C, the nonsense suppression is at most 0.026. As for U16A G19U U21G A60U, the nonsense suppression was at most 0.026. With U4G C12U U55G the figure was at most 0.026. G7U G84A: the nonsense suppression is at most 0.026. With C27G C64G G66A the figure was at most 0.026.

For G78U C80G, the nonsense suppression was at most 0.026. As for G61A G67A G73C, the figure is at most 0.026; as for A54G G61A A89U, at most 0.026; as for C5U U20G C29U A60C, at most 0.026. With G19A A31G G85U the figure was at most 0.026; with G26A G66A C77G C79G C82U, at most 0.026. With U2A U22C G61C G67U C79G the figure was at most 0.026; with U4G U71G G78A, at most 0.026. Turning to U57C G86U, the nonsense suppression was at most 0.026.

As for A24C G67U G86C, the nonsense suppression is at most 0.026. With A23G C29G U63C the figure was at most 0.026. With C29A G85A the figure was 0.115. Turning to U22A A23G C64G, the nonsense suppression was at most 0.026. With U17A A24U A60C the figure was at most 0.026; with U16G A30C A31G U55A U57A, at most 0.026; with G6A U55C U76C, at most 0.026.

For the variant C1A C3U C56U, the nonsense suppression was at most 0.026. As for U21G U22A A31U G88C, the figure is at most 0.026; as for C34U A54U U76C C80A, at most 0.026.

With G18A C56U U63C C68G, the nonsense suppression was at most 0.026. As for A14U G85A, the figure is at most 0.026; as for G18C A23U G26U C34A U55C, at most 0.026. As for U21A U22G U35G A54U A60U, the figure is at most 0.026; as for C1U C11U A33G G61A G67A G73U, at most 0.026. As for C3U U57C, the figure is at most 0.026; as for U16A A23C U35G A60C, at most 0.026; as for C27G U55G C79A, at most 0.026. On to U2G U21G, for which the nonsense suppression was at most 0.026. As for G15U G28A C80G, the figure is at most 0.026; as for G15U C29U, at most 0.026.

As for G32A U55A C68U, the nonsense suppression was at most 0.026.

Turning to G61U, the nonsense suppression amounted to 1.03. With G61C the figure was 1.14. For G19A U76C A87G, the nonsense suppression is at most 0.026.

U22C A24C G73U: the nonsense suppression is at most 0.026. As for U22C C79G G86U, the figure is at most 0.026; as for C80G G86U, at most 0.026; as for U8C G18U G25A C68A, at most 0.026. As for G10U A31C, the figure is at most 0.026; as for G7U A24G G26U, at most 0.026. With G59U A62C A89G the figure was at most 0.026; with C12U U76C, 0.818; with C11U U20C G85U, at most 0.026. Take A33U U55G U63C: the nonsense suppression was at most 0.026. As for C11G A62G, the figure is at most 0.026.

Values taken from the RNAGym collection of RNA variant scans (doi:10.1101/gad.245936.114).
